Source: PubChem BioAssay AID1671189 (National Center for Advancing Translational Sciences (NCATS), 2021)
In all, about 1,100 compounds went through this assay and about 70 (6%) were called active. About 22% were inconclusive and are not listed. Calls follow the shape of the dose curve; as a rule, active = well fitted curve in the direction sought with a large enough effect; inconclusive = small, poorly fitted or top-dose-only effect, or another doubt; inactive = no such curve, though single readings can be large or run the other way. Some of the results follow.

target: Polyunsaturated fatty acid lipoxygenase ALOX12 (Homo sapiens) (UniProt P18054); assay: Confirmatory qHTS assay for inhibitors of human arachidonate 12S-lipoxygenase (ALOX12): Round 2; settings: purified human 12-LOX, xylenol orange absorbance; activity change, negative = inhibition: at the top concentration
UniProt P18054, sequence (P18054 whole entry, looked up): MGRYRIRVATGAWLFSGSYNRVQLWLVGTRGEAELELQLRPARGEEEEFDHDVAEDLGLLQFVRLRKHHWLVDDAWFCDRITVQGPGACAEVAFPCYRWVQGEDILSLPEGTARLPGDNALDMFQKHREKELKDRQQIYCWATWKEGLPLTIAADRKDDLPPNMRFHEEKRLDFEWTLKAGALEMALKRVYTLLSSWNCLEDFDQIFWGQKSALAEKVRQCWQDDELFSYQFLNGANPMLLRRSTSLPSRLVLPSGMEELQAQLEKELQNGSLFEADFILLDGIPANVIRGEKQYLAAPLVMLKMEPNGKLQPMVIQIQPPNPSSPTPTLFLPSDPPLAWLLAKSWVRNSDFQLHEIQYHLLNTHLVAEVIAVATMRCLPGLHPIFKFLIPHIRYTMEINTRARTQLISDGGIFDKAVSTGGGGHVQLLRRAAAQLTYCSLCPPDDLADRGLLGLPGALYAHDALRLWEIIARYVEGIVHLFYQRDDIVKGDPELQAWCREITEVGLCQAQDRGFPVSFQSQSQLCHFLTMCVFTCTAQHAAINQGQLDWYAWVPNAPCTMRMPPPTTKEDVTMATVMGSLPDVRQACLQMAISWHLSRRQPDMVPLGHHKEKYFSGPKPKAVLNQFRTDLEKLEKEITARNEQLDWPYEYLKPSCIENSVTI
Summary of the method: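 Activity was measured as hydroperoxide formation via ferrous/xylenol orange, taking the 573 nm to 405 nm absorbance ratio. Reaction: 40 uM arachidonic acid, 30 min at room temperature, after 15 min compound preincubation with 150 nM enzyme, pH 7.0 Hepes buffer.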
% is scaled to controls: 0 for no effect and ±100 for the full control effect.

Activity change, negative = inhibition, inactive:
CCOc1ccc(-c2cccc3c2CCNC3)cc1C(N)=O 10.1% [at 64.5 µM], Cc1ccc(CC(=O)N2CCN(c3cc(C(F)(F)F)ncn3)CC2)cc1 -12% [at 64.5 µM], O=C(C1CCCC1)N1Cc2ccccc2CC2(CCN(Cc3cccnc3)C2)C1 (stereo not given) -28.9%, NCC(=O)N1CCC2(CC1)CN(C(=O)c1ccc(Cl)cc1)CCO2 5.55%, O=C(NC1CC1)c1cc(C2CC2)nc2onc(C3CCNCC3)c12 -20.1%, COCCNc1ncnc2c1CN(C1CCNCC1)C(=O)CN2C -20.2%, CNC(=O)c1cn2c(n1)CN(C(=O)OC)CC2 -9% [at 233 µM], CNC(C)c1cccc(OC)c1 (stereo not given) -2.95% [at 233 µM], CN1CC(=O)N(C2CNC2)Cc2c(NC3CC3)ncnc21 5.35%, CCn1ccc(C(=O)NC2CCCN(c3cc(-c4ccc(Cl)cc4)[nH]n3)C2)n1 (stereo not given) -7.64% [at 64.5 µM], C[S+](=O)([O-])N1Cc2ccccc2CC2(CCN(CC3CCNC3)CC2)C1 (stereo not given) -9.86%, FC(F)(F)c1ccc(CN2CCCC3(CC(c4cccc(C(F)(F)F)c4)=NO3)C2)cc1 (stereo not given) -22.5%, COCCCNC(=O)c1cc(C2CC2)nc2c1c(C1CCCN1)nn2-c1ccccc1 (stereo not given) -7.44%, CCN(CC)[C@H]1[C@@H]2OC[C@@H](O2)[C@@H](NCc2ccc(N(C)C)cc2)[C@@H]1O -0.5% [at 64.5 µM], CS(=O)(=O)NC[C@H]1O[C@@H](CO)[C@@H](O)C1N1CCN(c2ccccc2)CC1 (stereo not given in full) -13.4% [at 64.5 µM], CC(C)OCCCNC(=O)c1cc(C2CC2)nc2onc(C3CCCN3)c12 (stereo not given) -8.53%, CCOC(=O)C1=CN(CC(=O)Nc2ccccc2CC)S(=O)(=O)N=C1C -15% [at 64.5 µM], CCOc1ccccc1CN1CCCCC12Cc1ccccc1CNC2=O (stereo not given) -12.7%, CN1CC(=O)N(C2CCCNC2)Cc2c1ncnc2N1CCN(Cc2ccccc2)CC1 (stereo not given) -24.9%, CC(C)[S+](=O)([O-])N1CCCC1c1nnc2n1CCNC2 (stereo not given) 4.01%, CCN1CCC2(Cc3ccccc3CN(C(=O)Cc3ccccc3)C2)C1 (stereo not given) 1.51%, COc1ccc2c(c1)CCCN2C1CNC1 -17.1% [at 233 µM], O=C1NC(=NC2CCCCC2)C2(CCN(Cc3ccc(F)cc3)C2)N1c1cccnc1 (stereo not given) -11.1%, CCC(C)CNc1ncnc2c1CN(C1CCCNCC1)C(=O)CN2C (stereo not given) 1.31%, CN(C)C(=O)N1CCCC(c2nnc3n2CCNC3)C1 (stereo not given) -8.8%, CCC1(N2CCN(C(=O)Nc3cc(C)ccc3OC)CC2)CCN(C(=O)C(C)C)C1 (stereo not given) 5.23% [at 64.5 µM], CN(C)c1ccc(CN2CCn3c(nnc3C3CCNCC3)C2)cc1 -17.2%, c1ccc2c(CN3CC(Oc4ccc5c(c4)OCO5)C3)cccc2c1 -24.4%, COc1cccc(O)c1CN1CCCC12Cc1ccccc1CNC2=O (stereo not given) -7.39%, Cc1ccccc1N(C)C1CN(Cc2cccc3ccccc23)C1 -42.1%, C1CNCC(c2nc(C3CCOCC3)no2)C1 (stereo not given) -7.31% [at 64.5 µM], CC(=O)N1Cc2ccccc2CC2(CCCCN2Cc2ccccn2)C1 (stereo not given) 28.6%, O=C1c2ccccc2CN1C1CCN(Cc2ccsc2)CC1 -18.5%, O=C1NCc2ccccc2CC12CCCN2Cc1ccsc1 (stereo not given) -13.5%, CNCc1ccc(N2CCCC2)cc1 42.4% [at 233 µM], O=C(c1ccccc1)N1CCn2c(nnc2C2CCNCC2)C1 -13.7%, CC(=O)Nc1ccc(CN2CCC(c3nc4ccc(C)cc4c(=O)[nH]3)CC2)cc1 -13.7%, COc1ccc(N2CC3CCC(C2)N3Cc2ccc(C#N)cc2)cc1 -22.7%, CNCc1sc2ccccc2c1C -22.9% [at 233 µM], CN1CCN(CC(=O)N2c3ccccc3C(=O)Nc3cccnc32)CC1 -5.9%, CN1CC(=O)N(C2CCCNC2)Cc2c(NCCCO)ncnc21 (stereo not given) -12.2%, CCCN1CCC2(CC1)Cc1ccccc1CN(C(=O)C(C)C)C2 8.99%, Cc1cccc(OCc2nc(CC(=O)Nc3ccc(C)c(C)c3)cs2)c1 -8.17%, CC[C@](N)(CCC(=O)O)C(=O)O -11.6%, CN1CC(=O)N(C2CCCNCC2)Cc2c1ncnc2N1CCC(N2CCCC2)CC1 (stereo not given) 4.55%, COCCNC(=O)c1cc(C)nc2onc(C3CCCNC3)c12 (stereo not given) -16.4%, Cc1nn(-c2ccccn2)c(C)c1[C@@H]1C=C[C@@H](NC(=O)CSCC(=O)O)C1 16.2% [at 64.5 µM], CCOCCCNc1ncnc2c1CN(C1CCCNC1)C(=O)CN2C (stereo not given) -12.6%, C/C(=C\c1ccccc1)CN1CCCCC12Cc1ccccc1CNC2=O (stereo not given) -28.7%, CN(C)c1ccc(CN2CC(Oc3ccc(F)c(F)c3)C2)cc1 -26.4%, Cc1ccc(CN2CCCCC23Cc2ccccc2CNC3=O)cc1C (stereo not given) -25.9%, O=C1NCc2ccccc2CC12CCN(Cc1c(Cl)cncc1Cl)C2 (stereo not given) -0.846%, O=C1c2ccccc2CN1C1CCN(Cc2ccc(C(F)(F)F)cc2)CC1 -28.4%, CCCC(=O)N1Cc2ccccc2CC2(CCCN(CC3CCNC3)C2)C1 (stereo not given) 3.92%, CCNC(=O)[C@@H]1C[C@H](n2cc(CN(C)C(=O)Nc3ccc(C)cc3)nn2)CN1 -6.25% [at 64.5 µM]
